Data taken from PubChem BioAssay AID485313 (National Center for Advancing Translational Sciences (NCATS), 2010).
Screen size: about 320,000 compounds; about 7,600 (2.4%) were called active. This list was built around the results that the source calls inconclusive (neither active nor inactive); the mix of calls is not that of the screen. The call rests on the fitted dose curve; in most records, active means well fitted activation curve with a large enough effect; inconclusive means small, poorly fitted or top-dose-only effect; inactive means no such curve, though single readings can be large or run the other way. No potency is given beside an inconclusive call; the fits are too rough.

Assay: qHTS Assay for NPC1 Promoter Activators; further: nearly all actives have a fitted effect of over 60% in size
Conditions: Huh7 NPC1 promoter luciferase reporter, 24 h; series mostly up to 9.22 µM
Text: NIH Chemical Genomics Center [NCGC] NIH Molecular Libraries Probe Production centers Network [MLPCN] MLPCN Grant: MH089375-01A1 Assay Submitter (PI): Yiannis A. Ioannou NCGC Assay Overview: Niemann Pick Type C (NPC) is a rare neurodegenerative lipidosis that is characterized by lipid storage in the endosomal/lysosomal system. Treatment modalities for this devastating disease are currently non-existent due to the severe obstacles associated with accessing the central nervous system with proteins or genes. The majority of mutations causing NPC disease are missense mutations that are distributed throughout the length of the NPC1 protein, with the most prevalent being the I1061T allele. Although NPC1 mutant proteins may be functional, they are typically trapped in the ER due to misfolding. […] We have developed and optimized a cell based luciferase reporter assay in 1536 well format for the identification of up-regulators of the mutant NPC1 promoter.
The NPC1 promoter is cloned in front of the luciferase reporter gene, therefore NPC promoter activation results in luciferase expression. Frozen stock of the NPC1 promoter transfected Huh7 cells were obtained from the laboratory of Dr. Yiannis Ioannou (The Mount Sinai School of Medicine, New York, NY). Cells were propagated and maintained at NCGC in medium containing RPMI-1640 supplemented with 10% FBS, 2mM L-glutamine, and 50ug/ml penicillin/streptomycin. Cells were harvested in and plated for assays in OP-MEM I reduced-serum medium supplemented with 10% FBS. The Amplite luciferase reporter gene assay kit was purchased from ABD Bioquest and prepared/stored according to manufacturers recommendations. qHTS Assay Setup: 1.#Dispensed 5ul of Huh7 cells stably expressing NPC1-luciferase at a density of 1500 cells per well 1536-well plates. 2.#Incubate cells at 37C, 5% CO2, and 95% humidity for 2 hours. 3.#Transferred 23nl per well of compound in DMSO solution. 4.#Incubated at 37C, 5% CO2, and 95% humidity for 24 hours. 5.#Dispensed 3ul per well of Amplite reagent(ABD Bioquest) per well. 6.#Incubate at ambient for 10 minutes. 7.#Read using the luminescence protocol on the ViewLux plate reader (Perkin Elmer).
Potency means the concentration at half of the fitted maximal effect; tags describe the fitted curve by direction and shape.

Row | SMILES | Potency
1 | Clc1ccc(-c2nnc3ccccn23)cc1 | inactive
2 | N/C(=N\OC(=O)c1cc(Cl)ccc1Cl)c1ccccn1 | inconclusive [activator, single point]
3 | CN(C)CCN=Cc1c(O)n(Cc2ccc3c(c2)OCO3)c(=O)c2ccccc12 | inactive
4 | c1ccc2c(-n3cccn3)cccc2c1 | inconclusive [activator, partial curve]
5 | CCOC(=O)c1ccc(N/C=C/C(=O)c2ccco2)cc1 | active: 1.58 µM
6 | Brc1ccc(-c2nc(-c3ccncc3)no2)cc1 | active: 2.24 µM
7 | O=C(NCCCCNC(=O)c1ccccc1Cl)c1ccccc1Cl | inactive
8 | COc1ccccc1OCC(=O)Nc1ccncc1 | inactive
9 | COc1ccc(NC(C)=O)cc1NC(=O)c1ccc2ccccc2c1 | inactive
10 | Cc1ccccc1NC(=O)c1cc2ccccc2o1 | active: 3.98 µM
11 | O=C(Oc1ccc2ccc(OC(=O)N3CCOCC3)cc2c1)N1CCOCC1 | inactive
12 | CCCOc1ccc2cc(-c3ccccn3)c(=O)oc2c1 | inconclusive [activator, single point]
13 | Cc1ccc(/C(N)=N/OC(=O)CCc2ccccc2)cc1 | inactive
14 | NC(=O)C1CCN(CC(=O)Nc2cccnc2Cl)CC1 | inactive
15 | O=C(COC(=O)C1CCC1)NC(=O)c1ccccc1 | inactive
16 | COc1ccc2cc(C3OCCO3)c(Cl)nc2c1 | active: 2.51 µM
17 | CCOC(=S)SCc1cn2ccccc2n1 | inactive
18 | O=C(CSc1ccc(F)cc1)Nc1ccc(C2SCCS2)cc1 | inconclusive [activator, single point]
19 | Cc1cccc(-c2nnc(-c3ccc(N)cc3)o2)c1 | inconclusive [activator, single point]
20 | COCCN=C1NN=C(c2ccc(C)c([N+](=O)[O-])c2)CS1 | active: 2.82 µM
21 | CC(C)c1ccc(NC(=O)c2cccnc2)cc1 | inconclusive [activator, partial curve]
22 | COc1ccccc1N(CC(=O)Nc1ccccc1)S(=O)(=O)c1cccs1 | inactive
23 | O=C(CNS(=O)(=O)c1ccccc1)N1CCc2ccccc2C1 | inconclusive [activator, partial curve]
24 | c1ccc(-c2cc3ncccc3cn2)cc1 | inconclusive [activator, single point]
25 | NC(=O)c1ccccc1NC(=O)CCc1ccccc1 | inconclusive [activator, partial curve]
26 | Cc1cc(NC(=O)NC(=O)c2ccccc2F)no1 | inconclusive [activator, single point]
27 | COc1ccc(Nc2oc(COc3cccc(C)c3)nc2C#N)cc1 | inconclusive [activator, single point]

Row | SMILES | Potency
28 | Cc1ccc(-c2noc(C3CCCN(C(=O)c4cccc(Cl)c4)C3)n2)o1 (stereo not drawn) | inconclusive [activator, partial curve]
29 | Cc1ccc(N/N=C/c2cccnc2)cc1 | inconclusive [activator, partial curve]
30 | CCN(CC(=O)N(CC(C)C)c1c(N)n(CC(C)C)c(=O)[nH]c1=O)Cc1nc2ccccc2c(=O)[nH]1 | inconclusive [activator, single point]
31 | CCCC(NC(=O)C(C)Sc1nnnn1C1CC1)c1ccccc1 (stereo not drawn) | inactive
32 | CC1CCc2c(sc3ncnc(SCC(=O)c4ccccc4)c23)C1 (stereo not drawn) | inactive
33 | COc1ccc(CC(=O)Nc2cc3oc4ccccc4c3cc2OC)cc1 | inconclusive [activator, single point]
34 | CC1CCCN(C(=O)Cn2nnc(-c3ccccc3F)n2)C1 (stereo not drawn) | inconclusive [activator, single point]
35 | COc1ccc(C2Nc3ccccc3C(=O)N2c2ccc(C)cc2)cc1Cn1nc(C)c([N+](=O)[O-])c1C (stereo not drawn) | inconclusive [activator, single point]
36 | OC1CCCCC1Sc1nc2ccccc2s1 (stereo not drawn) | inconclusive [activator, partial curve]
37 | Cc1ccc(O)c(NC(=O)c2cc([N+](=O)[O-])ccc2Cl)c1 | inactive
38 | CC1Sc2ccc(C(=O)Nc3ncccc3O)cc2NC1=O (stereo not drawn) | active: 1.26 µM
39 | CCC(C(=O)Nc1ccc([N+](=O)[O-])cn1)c1ccccc1 (stereo not drawn) | inconclusive [activator, single point]
40 | CN(C)c1ccc(NC(=S)c2ccccn2)cc1 | inconclusive [activator, full curve]
41 | CC1CCN(C(=O)CS(=O)(=O)Cc2ccccc2)CC1 | inconclusive [activator, single point]
42 | Cc1ccn2cc(C(=O)Nc3nnc(C)s3)nc2c1 | inconclusive [activator, single point]
43 | COc1ccc2cc(CCNC(=O)c3ccco3)c(=O)[nH]c2c1 | active: 1.58 µM
44 | COc1ccc(NC(=S)NC(=O)/C=C/c2ccco2)c(OC)c1 | inactive
45 | O=C(COc1ccc2ccc(=O)oc2c1)Nc1nccs1 | active: 2.24 µM
46 | COc1ccccc1NC(=O)Cn1cnc2sc(C)c(S(=O)(=O)N3CCCCC3)c2c1=O | inactive
47 | Cc1c(Cl)cccc1NC(=O)c1cc(C2CC2)on1 | inconclusive [activator, single point]
48 | O=C(CN1CCN(c2ccccc2)CC1)N1CCc2[nH]c3ccccc3c2C1 | inactive
49 | N#Cc1c(/N=C/c2cc3ccccc3s2)sc2c1CCC2 | active: 1.41 µM
50 | c1ccc(-c2nnc(SCc3cn4ccsc4n3)o2)cc1 | inconclusive [activator, partial curve]
51 | COc1cccc(-c2nnc(-c3ccccc3[N+](=O)[O-])o2)c1 | inconclusive [activator, single point]
52 | O=C(CSc1ccccn1)c1ccc(F)cc1 | inconclusive [activator, partial curve]
53 | CN(C)/N=C/C=C1\CCC/C(=C/c2cccs2)C1=O | inconclusive [activator, single point]
